From PubChem BioAssay AID504332 (National Center for Advancing Translational Sciences (NCATS), 2011)
The whole screen tested about 350,000 compounds, of which about 31,000 (8.9%) were called active. The shares of active, inactive and inconclusive entries below differ from those in the screen. Calls come from the whole dose curve; as a rule, active = well fitted inhibition curve with a large enough effect; inconclusive = small, poorly fitted or top-dose-only effect; inactive = no such curve, though single readings can be large or run the other way. Potencies of inconclusive entries are doubtful fits and often do not repeat.

Biological target: Histone-lysine N-methyltransferase EHMT2 (Homo sapiens) (UniProt Q96KQ7)
Chain of UniProt Q96KQ7 (Q96KQ7 whole entry, looked up): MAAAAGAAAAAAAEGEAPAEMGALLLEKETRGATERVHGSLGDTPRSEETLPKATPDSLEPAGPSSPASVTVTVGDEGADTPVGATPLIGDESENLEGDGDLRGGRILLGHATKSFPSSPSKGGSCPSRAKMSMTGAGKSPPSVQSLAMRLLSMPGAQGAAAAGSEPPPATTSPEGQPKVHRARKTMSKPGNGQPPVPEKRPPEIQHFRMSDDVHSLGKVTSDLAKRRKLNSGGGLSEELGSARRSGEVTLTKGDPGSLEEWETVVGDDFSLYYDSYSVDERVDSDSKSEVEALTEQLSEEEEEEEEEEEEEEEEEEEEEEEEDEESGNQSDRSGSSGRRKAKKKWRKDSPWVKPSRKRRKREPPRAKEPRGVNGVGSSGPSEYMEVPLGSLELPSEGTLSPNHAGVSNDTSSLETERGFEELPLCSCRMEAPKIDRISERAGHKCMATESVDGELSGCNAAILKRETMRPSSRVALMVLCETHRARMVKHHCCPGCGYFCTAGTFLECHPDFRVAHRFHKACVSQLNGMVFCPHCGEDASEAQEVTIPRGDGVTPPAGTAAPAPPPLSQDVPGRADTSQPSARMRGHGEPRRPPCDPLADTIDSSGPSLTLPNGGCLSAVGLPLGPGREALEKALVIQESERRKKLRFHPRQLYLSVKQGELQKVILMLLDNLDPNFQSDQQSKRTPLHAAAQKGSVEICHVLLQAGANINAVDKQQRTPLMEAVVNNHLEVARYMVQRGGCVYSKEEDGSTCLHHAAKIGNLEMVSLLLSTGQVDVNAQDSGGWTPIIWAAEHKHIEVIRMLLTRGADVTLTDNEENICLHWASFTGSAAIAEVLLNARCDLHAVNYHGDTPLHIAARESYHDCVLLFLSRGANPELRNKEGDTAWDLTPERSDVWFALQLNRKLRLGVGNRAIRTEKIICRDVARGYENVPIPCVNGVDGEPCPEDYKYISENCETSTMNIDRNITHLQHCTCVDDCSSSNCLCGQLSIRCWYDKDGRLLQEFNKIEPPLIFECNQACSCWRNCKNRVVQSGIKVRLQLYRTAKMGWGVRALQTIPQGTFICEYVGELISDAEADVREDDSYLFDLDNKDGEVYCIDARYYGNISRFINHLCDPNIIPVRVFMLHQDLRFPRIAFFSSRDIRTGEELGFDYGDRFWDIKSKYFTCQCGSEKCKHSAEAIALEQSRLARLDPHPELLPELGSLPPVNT
Test: qHTS Assay for Inhibitors of Histone Lysine Methyltransferase G9a; note: nearly all actives have a fitted effect of over 75% in size
Details: G9a H3K9 monomethylation, AlphaScreen, 2 h; activity, negative = inhibition: at 59 µM (top of the series) unless noted
Outline: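 Signal arises when biotinylated H3K9 peptide, once monomethylated, bridges streptavidin donor and antibody-captured acceptor beads. Enzyme at 20 nM was preincubated 15 min with test compounds; peptide 500 nM and SAM 20 uM then reacted for 2 h.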
% is set by controls: 0 for no effect and ±100 for the full control effect; potency is the fitted concentration of half-maximal effect; tags give direction and shape of the fitted curve.

Compound | activity, negative = inhibition | Potency
CCn1c(SCC(=O)c2ccccc2)nc2c(c1=O)SC(C)C2 (stereo not given) | inactive: -28% | –
Cc1ccc(C)c(NC(=O)CSc2nnc(-c3cc4occc4n3C)n2-c2ccccc2C)c1 | – | inconclusive: 11.2 µM [inhibitor, partial curve, poor fit]
C=CCc1ccccc1OCC(O)CNC (stereo not given) | – | active: 50.1 µM
NNC(=O)C1=NOC(CNc2ncc(C(F)(F)F)cc2Cl)C1 (stereo not given) | – | inconclusive: 39.8 µM [inhibitor, partial curve, poor fit]
Cc1cc(/C=N/n2c(COc3ccccc3C)nc3ccccc3c2=O)c(O)c([N+](=O)[O-])c1 | – | inconclusive: 39.8 µM [inhibitor, single point]
COc1ccccc1CC(=O)Nc1ccc(Cl)cc1C(=O)O | – | inconclusive: 79.4 µM [inhibitor, partial curve, poor fit]
O=c1c2cc(NC(=S)NCCCN3CCC(Cc4ccccc4)CC3)ccc2nc2n1CCCCC2 | – | inconclusive: 39.8 µM [inhibitor, partial curve]
CCOC(=O)C1=C(CSc2nc(-c3ccccc3)ccc2C#N)OC(N)=C(C#N)C1c1cccnc1 (stereo not given) | – | active: 39.8 µM
Cc1ccc(S(=O)(=O)N2CCCCC2)cc1NC(=O)c1ccccn1 | – | inconclusive: 89.1 µM [inhibitor, partial curve, poor fit]
CCOc1ccc(NC(=O)c2sccc2-n2cccc2)cc1 | – | inconclusive: 79.4 µM [inhibitor, single point]
O=C(NCCc1ccccn1)C1CC(=O)N(Cc2ccccc2Cl)C1 (stereo not given) | inactive: 2.88% [at 102 µM] | –
Cc1cc2nc(-c3ccc(SCc4ccccn4)nc3)[nH]c2cc1C | inactive: -26.2% [at 102 µM] | –
Cc1ccc(CN2CCN(/N=C/c3cccnc3)CC2)c(C)c1 | – | inconclusive: 39.8 µM [inhibitor, single point]
CCN(c1ccccc1)S(=O)(=O)c1cc2c3c(c1)C(C)C(=O)N3CCC2 (stereo not given) | inactive: 22.6% [at 102 µM] | –
Cc1cc(OCCn2cc(/C(N)=N/O)c3ccccc32)ccc1Cl | inconclusive: -69.5% [inhibitor] [at 0.0925 µM] | –
COc1ccc(/C=C/C(=O)OCc2cc(=O)n3c(n2)sc2ccccc23)cc1 | inactive: -14% [at 102 µM] | –
CC(=O)Nc1ccc(-c2csc(NC(=O)C3CCN(S(=O)(=O)c4cccs4)CC3)n2)cc1 | – | inconclusive: 2 µM [inhibitor, partial curve, poor fit]
COc1ccccc1CNC(=O)c1ccc(-c2nc(CS(=O)(=O)c3ccc(C)cc3)c(C)o2)cc1 | inactive: -29.4% | –
Cc1ccc(C(=O)CC(c2cccs2)S(=O)(=O)c2ccc(C)cc2)cc1 (stereo not given) | inactive: -28.1% | –
CCOC(=O)c1c(NC(=O)/C=C/c2ccc(C)cc2)sc2c1CCCC2 | inactive: 23% | –
CC(=O)Nc1ccc(S(=O)(=O)NC(C(=O)O)C2=CCC=CC2)cc1 (stereo not given) | – | inconclusive: 50.1 µM [inhibitor, partial curve, poor fit]
O=C(NCc1ccco1)C(=O)NCC1OCCN1S(=O)(=O)c1ccccc1 (stereo not given) | – | inconclusive: 100 µM [inhibitor, single point]
Cc1ccccc1CNC(=O)CC1C(=O)NCCN1CC1CCCCC1 (stereo not given) | – | inconclusive: 89.1 µM [inhibitor, single point]
Cc1cccc(OCC(=O)Nc2ccccc2C(=O)OCc2cc(=O)n3nc(C)sc3n2)c1 | inactive: -3.2% | –

Compound | activity, negative = inhibition | Potency
Cn1cc(CC(=O)NCCCN2CCCC2=O)c2ccccc21 | inactive: 6.32% [at 102 µM] | –
Cc1ccn2cc(CCNC(=O)c3ccc(Br)o3)nc2c1 | – | inconclusive: 50.1 µM [inhibitor, partial curve]
O=c1[nH]c2ccc(NCc3ccc(-c4ccccc4)o3)cc2[nH]1 | – | inconclusive: 2.24 µM [inhibitor, full curve, poor fit]
COc1ccc(C(C)=O)cc1COC(=O)CCNS(=O)(=O)c1ccc(C)cc1 | – | active: 50.1 µM
CC(NO)/C(=N\O)c1cccs1 (stereo not given) | – | active: 3.98 µM
CCOC(=O)c1cnn(-c2ccccc2)c1NC(=O)CN1CCOCC1 | inconclusive: -56.3% [inhibitor] | –
Cc1oc(C(=O)O)cc1CSCc1cc(C(=O)O)c(C)o1 | – | active: 14.1 µM
CN(C)c1ccc(C2/C(=C(/O)c3ccccc3)C(=O)C(=O)N2CCCC(=O)O)cc1 (stereo not given) | inconclusive: -87.3% [inhibitor] | –
COc1ccc(OC)c(NC(=O)c2cn(CC(C)C)c(=O)c3cc(OC)c(OC)cc23)c1 | inactive: -42.9% | –
COC(=O)CSC1=C(C#N)C(=O)NC(c2ccccc2)S1 (stereo not given) | – | inconclusive: 28.2 µM [inhibitor, single point]
CSc1c(SCc2ccccc2)cnn(Cc2ccccc2)c1=O | – | inconclusive: 3.98 µM [inhibitor, full curve]
Cc1cccc(NC(=O)CN(c2ccc(C(C)C)cc2)S(=O)(=O)c2c(C)nn(C)c2C)n1 | – | inconclusive: 89.1 µM [inhibitor, single point]
COc1ccc(CNc2ncc(-c3ccccc3)n2C)cc1 | inactive: -1.99% [at 0.501 µM] | –
O=C(c1ccccc1)N1CCCc2ccccc21 | inactive: -0.536% | –
Cc1nc(NC(N)=S)sc1C(=O)Nc1ccccc1 | – | inconclusive: 79.4 µM [inhibitor, single point]
NC(=O)[C@@H]1CCCCNc2c(F)cc([N+](=O)[O-])cc2C(=O)N[C@@H](CC(=O)O)C(=O)NCC(=O)N1 | – | inconclusive: 89.1 µM [inhibitor, single point]
O=C(Nc1ccc2snnc2c1)N1CCOCC1 | – | inconclusive: 89.1 µM [inhibitor, single point]
Cc1noc(C)c1CSc1ccccc1C(=O)OC(C)C(N)=O (stereo not given) | – | inconclusive: 79.4 µM [inhibitor, single point]
c1csc(Cn2nnnc2CN2CCN(c3nc4ccccc4s3)CC2)c1 | – | inconclusive: 89.1 µM [inhibitor, single point]
CC(C)(C)OC(=O)CNC(=O)c1[nH]cnc1C(=O)NCC(=O)OCc1ccccc1 | – | inconclusive: 44.7 µM [inhibitor, partial curve]
CC(=O)Nc1ccc(S(=O)(=O)Oc2ccc3c(c2)C(C)=CC(C)(C)N3)cc1 | – | inconclusive: 39.8 µM [inhibitor, single point]
NS(=O)(=O)c1ccc(CCNC(=O)c2ccccc2[N+](=O)[O-])cc1 | – | inconclusive: 39.8 µM [inhibitor, single point]
Cc1ccc(N2CCN(C(=O)CNS(=O)(=O)c3ccc(Br)s3)CC2C)cc1 (stereo not given) | – | inconclusive: 89.1 µM [inhibitor, single point]
CCC(=O)N1CCc2cc(Br)cc(S(=O)(=O)CCC(=O)N3CCN(c4cc(C)ccc4C)CC3)c21 | – | inconclusive: 31.6 µM [inhibitor, partial curve, poor fit]

Compound | activity, negative = inhibition | Potency
O=C1NC(=S)N/C1=C/c1ccc2c(c1)OCO2 | inactive: 14.5% [at 102 µM] | –
CCC(CO)Nc1ccc(-c2nn(C)c(=O)c3ccccc23)cc1[N+](=O)[O-] (stereo not given) | – | inconclusive: 39.8 µM [inhibitor, partial curve, poor fit]
CCCCCC(=O)N1CCN(CCN=CC2=C(O)CC(c3ccc(OC)cc3)CC2=O)CC1 (stereo not given) | – | inconclusive: 6.31 µM [inhibitor, single point]
O=C(c1ccc2c(c1)OCO2)C1CCCN(Cc2c(F)ccc(F)c2F)C1 (stereo not given) | – | inconclusive: 89.1 µM [inhibitor, single point]
COc1ccc2c(CNC3CCCCCC3)c(C(=O)O)n(Cc3ccccc3F)c2c1 | inactive: -38.5% | –
Cn1c(N)c(C(=O)Nc2ccc(-c3ccccc3)cc2)sc1=S | – | active: 8.91 µM
Nc1nc(-c2ccccc2)c(-c2ccccc2)s1 | – | active: 39.8 µM
COc1cc(OC)c(OC)cc1/C=C1\SC(N2CCCCC2)=NC1=O | – | inconclusive: 89.1 µM [inhibitor, single point]
O=C(CCN1CCC(c2cccs2)=N1)c1cccs1 | – | inconclusive: 44.7 µM [inhibitor, partial curve]
Cc1cccc(OCC(=O)NC(=S)NNC(=O)c2ccncc2)c1 | – | active: 2.24 µM
COc1ccccc1CNc1ncncc1-c1ccc2c(c1)OCO2 | inactive: 10.8% [at 0.501 µM] | –
O=C(Nc1ccc(F)cc1)C1CCN(S(=O)(=O)c2ccc3c(c2)CCCN3C(=O)C2CCC2)CC1 | inactive: -32.1% | –
O=C(COc1ccccc1)Nc1nccs1 | – | inconclusive: 2 µM [inhibitor, full curve, poor fit]
CCC(C)N1CCC2(CC1)N=c1c(c3c4c5c(C)c(O)c3c(O)c1=NC(=O)C(C)=CC=C[C@H](C)[C@H](O)[C@@H](C)[C@@H](O)[C@@H](C)[C@H](OC(C)=O)[C@H](C)[C@@H](OC)C=CO[C@@](C)(O5)C4=O)N2 (stereo not given in full) | – | inconclusive: 22.4 µM [inhibitor, single point]
CC1=C(C(=O)OCc2ccccc2)C(c2ccc([N+](=O)[O-])cc2)NC(=O)N1C (stereo not given) | inactive: 0.659% [at 102 µM] | –
O=C1CC(c2ccco2)CC(O)=C1C=Nc1ccc(Br)cc1 (stereo not given) | – | active: 14.1 µM
Cc1ccc(NC(=O)COC(=O)C2CCN(c3ccc(C(F)(F)F)cn3)CC2)cc1 | – | inconclusive: 3.16 µM [inhibitor, partial curve, poor fit]
CCCCc1ccc(N=N/C(C(=O)Nc2ccc(NC(C)=O)cc2OC)=C(/C)O)cc1 | – | active: 35.5 µM
CC(C)CC(NC(=O)c1ccccc1)C(=O)OCC(=O)Nc1ccc(Br)cn1 (stereo not given) | inactive: -45.9% [at 102 µM] | –
COc1ccc(/C=C2\N=C3CCCCCN3C2=O)cc1OC | inactive: 21.7% [at 2.33 µM] | –
O=C(O)CSC1CC(=O)N(c2ccc(Cl)cc2)C1=O (stereo not given) | – | inconclusive: 35.5 µM [inhibitor, single point]
Cc1ccc(CNC(=O)Cn2ccc3ccccc3c2=O)o1 | inconclusive: -74.7% [inhibitor] | –
